# From PubChem BioAssay (Tox21)
# Several values for one entry are separate records, joined by “and”; a condition that tells them apart may be missing. Equal entries are not always repeated. The inconclusive results got no clear call from the source; some entries with a clear call stand among them for comparison. For some of these results: Where the call is inconclusive, the potency comes from a doubtful curve fit. Activity calls are given as the source filed them. Unless noted, calls follow the shape of the dose curve; as a rule, active = well fitted curve in the direction sought with a large enough effect in the repeat runs; inconclusive = weak or mixed curves; inactive = no such curve, though single readings can be large; an effect the other way counts as inactive or inconclusive.
# Key:
# [1] = qHTS RealTime-Glo MT Cell Viability Assay in HEK293 cells - 24 hour (AID 1224886); also: potency is read from the fitted curve at half-maximal effect; nearly all actives have a fitted effect of over 50% in size
# Procedure, shortened: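 Luminescence generated by NanoLuc from substrate produced by living HEK293 cells served as the viability signal. Each value reflects the reading at its stated time point during continuous 40 h compound exposure at 37 C.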
# [2] = qHTS assay to identify small molecule antagonists of the androgen receptor (AR) signaling pathway using the MDA cell line in the presence of 0.5 nM R1881 - cell viability counter screen (AID 1259242); also: nearly all actives have a fitted effect of over 45% in size; also: potency is read from the fitted curve at half-maximal effect
# Procedure, shortened: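 Human breast carcinoma MDA-kb2 cells, cultured without CO2, receive compounds alongside 0.5 nM (final) R1881 agonist. After 16 hr at 37C, viability is taken as live-cell protease signal.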
# [3] = biological target: Estrogen receptor (Homo sapiens) (UniProt P03372); assay: qHTS assay to identify small molecule antagonists of the estrogen receptor alpha (ER-alpha) signaling pathway using the BG1 cell line in the presence of 0.1 nM 17-beta-estradiol (AID 1259244); also: potency is read from the fitted curve at half-maximal effect; nearly all actives have a fitted effect of over 50% in size
# Procedure, shortened: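 Seeding of stripped-serum-adapted VM7Luc4E2 cells, 24 h attachment, compound transfer, then 0.1 nM final 17beta-estradiol; after 22 h incubation, ONE-Glo reagent and luminescence reading.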
# [4] = qHTS assay to identify small molecule agonists of the sonic hedgehog signaling (Shh) pathway - cell viability counter screen (AID 1259366); also: potency is read from the fitted curve at half-maximal effect; nearly all actives have a fitted effect of over 50% in size
# Procedure, shortened: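 Cytotoxicity counter screen: CellTiter-Fluor reagent added after 23 h compound exposure, then 1 h at 37C and fluorescence read. Cells were 3T3 Gli1-Luc, seeded 2,000 per well and dosed 4 h post-plating.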
# [5] = qHTS assay to identify small molecule antagonists of the sonic hedgehog signaling (Shh) pathway - cell viability counter screen (AID 1259367); also: potency is read from the fitted curve at half-maximal effect; nearly all actives have a fitted effect of over 55% in size
# Procedure, shortened: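 Tox21 library chemicals were tested on a Gli1-Luc NIH/3T3 clone (2,000 cells/well) stimulated by conditioned medium; viability was quantified as fluorescence from CellTiter-Fluor reagent added at 23 hr.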
# [6] = qHTS assay to identify small molecule antagonists of the sonic hedgehog signaling (Shh) pathway (AID 1259369; calls by dose curve; also: potency is read from the fitted curve at half-maximal effect; nearly all actives have a fitted effect of over 45% in size)
# Procedure, shortened: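 Gli1 transcriptional reporter (firefly Luc) in NIH/3T3 background, conditioned-medium activated. 24hr exposure, luminescence endpoint.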
# [7] = biological target: Estrogen receptor beta (Homo sapiens) (UniProt Q92731); assay: qHTS assay to identify small molecule agonists of the estrogen receptor beta (ER-beta) signaling pathway (AID 1259377; active = well fitted activation curve with a large enough effect in the signal ratio in the repeat runs, not every such curve was filed as active; inconclusive = weak or mixed curves, or effect the other way; the % refers to the signal ratio; also: potency is read from the fitted curve at half-maximal effect; as to activation: % is scaled to controls: 0 for no effect and ±100 for the full control effect); details: ER-beta-UAS-bla HEK293T, beta-lactamase FRET ratio, 16 h; activation: at 92.4 µM (top of the series) unless noted
# Procedure, shortened: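 Ratiometric beta-lactamase FRET read-out came after 2 h substrate loading at room temperature. It followed 16 h compound treatment at 37C of GripTite HEK293T cells carrying a UAS-bla reporter, plated in 2% charcoal-stripped FBS medium.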
# [8] = qHTS assay to identify small molecule antagonists of the estrogen receptor alpha (ER-alpha) signaling pathway using the BG1 cell line in the presence of 0.1 nM 17-beta-estradiol - cell viability counter screen (AID 1259241); also: nearly all actives have a fitted effect of over 40% in size; also: potency is read from the fitted curve at half-maximal effect
# Procedure, shortened: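 Cytotoxicity counter-screen: live-cell protease activity measured by fluorescence (30 min reagent step) in the same wells. Cells were VM7Luc4E2 with endogenous ER-alpha and ERE-driven luciferase, treated 22 hr at 37C alongside 0.1 nM 17beta-estradiol final.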
# [9] = qHTS assay to identify small molecule HDAC inhibitors (AID 1259364);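 also: wild-type HCT-116 cells with endogenous class I/II HDAC activity; top concentration of the series differs between compounds; % is scaled to controls: 0 for no effect and ±100 for the full control effect; nearly all actives have a fitted effect of over 45% in size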
# Procedure, shortened: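 After a 2 hr compound incubation (37C, 5% CO2), HCT-116 cells seeded at 1,500/well the day before received HDAC-Glo reagent; signal read as luminescence after 30 min at room temperature.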
# [10] = biological target: Estrogen receptor beta (Homo sapiens) (UniProt Q92731); assay: qHTS assay to identify small molecule antagonists of the estrogen receptor beta (ER-beta) signaling pathway (AID 1259378; active = well fitted inhibition curve with a large enough effect in the signal ratio in the repeat runs, not every such curve was filed as active; inconclusive = weak or mixed curves, or effect the other way; inactive = no such curve, though single readings can be large or run the other way; the % refers to the signal ratio; also: potency is read from the fitted curve at half-maximal effect); details: ER-beta-UAS-bla HEK293T, beta-lactamase FRET ratio, 16 h; activity, negative = inhibition: at 92.4 µM (top of the series) unless noted
# Procedure, shortened: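 ER-beta-UAS-bla HEK293T cells in 2% charcoal-stripped FBS medium treated with compound plus 1nM final 17-beta-estradiol for 16 hr at 37C. Beta-lactamase reporter read by FRET substrate fluorescence after 2 hours at room temperature.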
# [11] = qHTS assay to identify small molecule agonists of the androgen receptor (AR) signaling pathway in the presence of an antagonist - cell viability counter screen (AID 1259379); also: potency is read from the fitted curve at half-maximal effect; nearly all actives have a fitted effect of over 25% in size
# Procedure, shortened: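 Counter screen for cell viability run in parallel with the AR agonist-mode luciferase assay. MDA-kb2 cells were co-treated with nilutamide (3.0uM final) and compounds, then incubated 16 hr at 37C, and CellTiter-Fluor fluorescence was measured.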
# [12] = biological target: Androgen receptor (Homo sapiens) (UniProt P10275); assay: qHTS assay to identify small molecule antagonists of the androgen receptor (AR) signaling pathway using the MDA cell line in the presence of 0.5 nM R1881 (AID 1259243); also: potency is read from the fitted curve at half-maximal effect; nearly all actives have a fitted effect of over 50% in size
# Procedure, shortened: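 Cells: MDA-kb2 (MMTV-luc). Stimulus: 0.5 nM R1881. Time: 16 hr, 37C, no CO2. Detection: ONE-Glo luminescence after 30 min at RT.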
# [13] = qHTS RealTime-Glo MT Cell Viability Assay in HepG2 cells - 0 hour (AID 1224889)
# Procedure, shortened: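 Tox21 10K library screened in qHTS format on HepG2 cells carrying RealTime-Glo reagents. Compounds were added after a 5 h preincubation, and the luminescent signal from continuous culture was measured repeatedly during 40 h treatment.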
# [14] = qHTS assay to identify small molecule phospholipidosis (PLD) inducers (AID 1259344; active = well fitted curve in the direction sought with a large enough effect; inconclusive = small, poorly fitted or top-dose-only effect, or another doubt; inactive = no such curve, though single readings can be large; an effect the other way counts as inactive or inconclusive; also: potency is read from the fitted curve at half-maximal effect)
# Procedure, shortened: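 Image-based: LipidTOX Red pit count/intensity per well and per cell; HepG2, 24 h compound at 37 C, PFA fixation, Hoechst counterstain.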
# [15] = A CellTox Green Cytotoxicity Assay to monitor cytotoxicity in HepG2 cells - 8 hour (AID 1224890); also: potency is read from the fitted curve at half-maximal effect; nearly all actives have a fitted effect of over 45% in size
# Procedure, shortened: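 Fluorescent DNA-binding dye, 600 HepG2 cells/well, 5 h preincubation then compound in DMSO; same plates read at 0–40 h, 37 C.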
# [16] = A CellTox Green Cytotoxicity Assay to monitor cytotoxicity in HEK293 cells - 16 hour (AID 1224888); also: potency is read from the fitted curve at half-maximal effect; nearly all actives have a fitted effect of over 35% in size
# Procedure, shortened: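 Homogeneous no-lysis format: HEK293 cell suspension mixed with CellTox Green reagent, seeded, incubated 5 h at 37 C/5% CO2, then dosed by pintool with compound in DMSO.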
# [17] = qHTS assay to identify small molecule HDAC inhibitors - cell viability counter screen (AID 1259365)
# Procedure, shortened: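 CellTiter-Glo luminescence (30 min, room temperature) reported viability after a 2 h compound exposure at 37 C. Cells: wild-type HCT-116, 1,500 per well, seeded the night before.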
# [18] = qHTS assay to identify small molecule agonists of the sonic hedgehog signaling (Shh) pathway (AID 1259368; calls by dose curve; also: potency is read from the fitted curve at half-maximal effect; nearly all actives have a fitted effect of over 15% in size)
# Procedure, shortened: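 Stable NIH/3T3 Gli1-Luc reporter clone; 24 hr cpd exposure after a 4 hr settling period; luminescence endpoint.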
# Tags tell the direction and shape of the fitted curve or compound fluorescence and quenching.
# UniProt P03372, sequence (P03372 whole entry, looked up): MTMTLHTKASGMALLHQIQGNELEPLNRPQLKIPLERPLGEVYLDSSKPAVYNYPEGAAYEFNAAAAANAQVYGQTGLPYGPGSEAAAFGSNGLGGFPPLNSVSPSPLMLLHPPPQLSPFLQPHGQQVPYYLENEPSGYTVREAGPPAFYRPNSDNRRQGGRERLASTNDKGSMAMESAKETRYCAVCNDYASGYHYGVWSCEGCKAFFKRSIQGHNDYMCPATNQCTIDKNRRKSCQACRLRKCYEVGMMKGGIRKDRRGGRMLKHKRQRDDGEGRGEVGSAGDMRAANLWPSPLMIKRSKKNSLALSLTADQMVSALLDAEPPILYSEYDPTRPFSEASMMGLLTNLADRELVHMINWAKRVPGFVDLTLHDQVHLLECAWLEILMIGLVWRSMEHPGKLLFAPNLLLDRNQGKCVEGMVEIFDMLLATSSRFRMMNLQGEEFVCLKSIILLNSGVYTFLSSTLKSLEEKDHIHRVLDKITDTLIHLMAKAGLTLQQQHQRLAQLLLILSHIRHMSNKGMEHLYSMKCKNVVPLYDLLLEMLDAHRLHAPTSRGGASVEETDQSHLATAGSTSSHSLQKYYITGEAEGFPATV
# UniProt P10275, sequence (P10275 whole entry, looked up): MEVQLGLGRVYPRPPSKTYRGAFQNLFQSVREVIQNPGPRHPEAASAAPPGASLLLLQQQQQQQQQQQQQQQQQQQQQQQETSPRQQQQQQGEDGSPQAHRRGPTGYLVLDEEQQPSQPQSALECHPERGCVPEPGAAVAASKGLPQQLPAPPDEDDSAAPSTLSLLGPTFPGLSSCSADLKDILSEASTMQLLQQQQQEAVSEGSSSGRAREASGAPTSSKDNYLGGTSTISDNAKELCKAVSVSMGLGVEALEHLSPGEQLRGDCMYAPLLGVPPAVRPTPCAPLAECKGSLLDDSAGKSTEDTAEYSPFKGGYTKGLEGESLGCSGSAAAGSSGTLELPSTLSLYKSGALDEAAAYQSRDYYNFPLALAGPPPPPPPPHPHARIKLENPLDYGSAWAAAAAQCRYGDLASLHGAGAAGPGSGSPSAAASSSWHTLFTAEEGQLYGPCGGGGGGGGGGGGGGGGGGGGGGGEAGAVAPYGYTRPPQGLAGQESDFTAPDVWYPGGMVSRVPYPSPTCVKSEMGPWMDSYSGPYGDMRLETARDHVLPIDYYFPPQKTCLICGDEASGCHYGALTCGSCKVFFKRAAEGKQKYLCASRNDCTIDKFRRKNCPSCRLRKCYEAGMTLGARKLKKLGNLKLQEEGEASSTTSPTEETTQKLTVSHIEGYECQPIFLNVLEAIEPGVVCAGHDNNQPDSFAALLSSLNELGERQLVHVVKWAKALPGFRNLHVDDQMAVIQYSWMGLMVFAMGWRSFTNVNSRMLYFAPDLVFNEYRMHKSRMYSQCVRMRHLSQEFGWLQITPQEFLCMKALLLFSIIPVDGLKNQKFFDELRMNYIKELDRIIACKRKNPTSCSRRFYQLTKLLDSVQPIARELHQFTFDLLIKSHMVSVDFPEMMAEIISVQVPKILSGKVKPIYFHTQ
# UniProt Q92731, sequence (Q92731 whole entry, looked up): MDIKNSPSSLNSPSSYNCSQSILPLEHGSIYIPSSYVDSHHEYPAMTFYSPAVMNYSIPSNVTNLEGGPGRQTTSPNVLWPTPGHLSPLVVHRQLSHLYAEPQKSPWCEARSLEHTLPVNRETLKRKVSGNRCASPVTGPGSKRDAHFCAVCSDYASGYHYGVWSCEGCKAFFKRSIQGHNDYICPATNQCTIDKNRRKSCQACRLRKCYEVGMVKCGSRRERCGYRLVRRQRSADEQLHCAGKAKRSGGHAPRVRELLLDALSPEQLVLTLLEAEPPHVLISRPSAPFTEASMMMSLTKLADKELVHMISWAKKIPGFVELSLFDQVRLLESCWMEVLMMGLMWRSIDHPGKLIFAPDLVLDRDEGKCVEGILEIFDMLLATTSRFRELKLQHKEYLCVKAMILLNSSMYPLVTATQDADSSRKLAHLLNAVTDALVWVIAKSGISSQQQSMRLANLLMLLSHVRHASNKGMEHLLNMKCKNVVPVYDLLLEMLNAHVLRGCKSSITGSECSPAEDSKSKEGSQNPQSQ
smiles,measurement,setting,value
CCC(C)(c1ccc(O)cc1)c1ccc(O)cc1,Potency,[1],"inconclusive: 48.9 µM [cytotoxic, partial curve] and inconclusive: 49 µM [cytotoxic, single point]"
same,Potency,[2],inactive
same,Potency,[3],"inconclusive: 61.1 µM [inhibitor] and inconclusive: 61.1 µM [inhibitor, partial curve, poor fit]"
same,Potency,[4],"inconclusive: 54.5 µM [cytotoxic, partial curve, poor fit]"
same,Potency,[5],"inconclusive: 43.2 µM [cytotoxic, partial curve, poor fit]"
same,Potency,[6],active: 24.3 µM and active: 61.1 µM
same,activation,[7],inconclusive: -6.31%
CCC[CH2][Sn]([CH2]CCC)([O]C(C)=O)[O]C(C)=O,Potency,[1],active: 0.0879 µM
same,Potency,[8],active: 0.692 µM
same,Potency,[3],active: 617 nM
same,Potency,[9],inactive
same,Potency,[10],active: 0.174 µM
CC1(C)C(C(=O)OC(C#N)c2cccc(Oc3ccccc3)c2)C1(C)C (stereo not drawn),Potency,[1],"inconclusive: 44 µM [cytotoxic, partial curve]"
same,Potency,[2],"inconclusive: 69.1 µM [cytotoxic, single point]"
same,Potency,[6],"inconclusive: 27.3 µM [inhibitor, single point]"
same,Potency,[10],"active: 48.9 µM and inconclusive: 38.5 µM [inhibitor, partial curve, poor fit]"
same,Potency,[11],inconclusive: 69.1 µM [cytotoxic]
O=CC(Br)(Br)Br,Potency,[1],active: 2.45 µM
same,Potency,[8],"inconclusive: 68.4 µM [cytotoxic, single point]"
same,Potency,[2],active: 43.1 µM
same,Potency,[4],active: 24.3 µM
same,Potency,[7],inactive
C[C@H](CN1CCOCC1)C(C(=O)N1CCCC1)(c1ccccc1)c1ccccc1,Potency,[1],"inconclusive: 53.1 µM [cytotoxic, partial curve]"
same,Potency,[8],inactive
same,Potency,[12],"inconclusive: 83.4 µM [inhibitor, partial curve, poor fit]"
same,Potency,[4],"inconclusive: 41.8 µM [cytotoxic, partial curve]"
same,Potency,[5],"inconclusive: 21 µM [cytotoxic, partial curve]"
CCCCCCCCCC[N+](C)(C)CCCCCCCCCC,Potency,[1],active: 1.74 µM
same,Potency,[13],"inconclusive: 54.9 µM [cytotoxic, single point]"
same,Potency,[8],"inconclusive: 68.6 µM [cytotoxic, single point]"
same,Potency,[2],active: 54.5 µM
same,Potency,[14],inactive
same,Potency,[7],"inconclusive: 30.6 µM [cytotoxic, full curve]"
same,Potency,[10],inconclusive: 30.6 µM [cytotoxic]
CCOc1cc(C(C)(C)C)ccc1C1COC(c2c(F)cccc2F)=N1 (stereo not drawn),Potency,[1],"inconclusive: 2.65 µM [cytotoxic, full curve]"
same,Potency,[12],"inconclusive: 37.1 µM [inhibitor, single point]"
same,Potency,[3],"inconclusive: 23400 nM [inhibitor, partial curve]"
same,Potency,[6],active: 2.95 µM
same,Potency,[7],"inconclusive: 20.9 µM [rising, partial curve]"
same,Potency,[10],"inconclusive: 41.6 µM [inhibitor, single point]"
Oc1cc(Cl)c(Cl)c(Cl)c1,Potency,[1],"inconclusive: 52.1 µM [cytotoxic, single point]"
same,Potency,[13],"inconclusive: 46.5 µM [rising, partial curve, poor fit]"
same,Potency,[2],"inconclusive: 65 µM [cytotoxic, single point]"
same,Potency,[5],"inconclusive: 65 µM [cytotoxic, single point]"
same,Potency,[10],active: 14.6 µM
same,Potency,[11],"inconclusive: 65 µM [cytotoxic, single point]"
CCO/N=C(\CC)C1=C(O)CC(c2c(C)cc(C)cc2C)CC1=O (stereo not drawn),Potency,[1],"inconclusive: 34.7 µM [cytotoxic, partial curve]"
same,Potency,[13],"inconclusive: 43.6 µM [cytotoxic, partial curve, poor fit]"
same,Potency,[15],"inconclusive: 61.6 µM [activator, single point]"
same,Potency,[12],inconclusive: 68.6 µM [inhibitor]
same,Potency,[14],"inconclusive: 50.1 µM [activator, single point]"
O=[N+]([O-])c1cc(C(F)(F)F)c(Cl)c([N+](=O)[O-])c1Cl,Potency,[1],active: 6.16 µM
same,Potency,[16],active: 11 µM
same,Potency,[17],"inconclusive: 68.6 µM [cytotoxic, single point]"
same,Potency,[18],"inconclusive: 4.86 µM [activator, partial curve]"
same,Potency,[6],active: 4.86 µM
same,Potency,[7],"inconclusive: 17.2 µM [rising, partial curve]"
same,Potency,[10],inconclusive: 24.3 µM [full curve]
